# Tested on: endometrial PLA2G2A/DIO2 ratios
# Assay: SIMPLANT trial: endometrial PLA2G2A/DIO2 ratios by RT-qPCR in paired baseline and second endometrial biopsies
# Conditions: women with a history of 3 or more miscarriages, sitagliptin 100 mg daily for 3 consecutive cycles, n=15, Wilcoxon Matched Pairs Signed Ranks test, P=0.0052
# Method: DIO2 and PLA2G2A transcripts were measured by RT-qPCR in paired baseline and second endometrial biopsies obtained from participants in the SIMPLANT trial (EudraCT Number 2016-001120-54) in the placebo (n=16) and sitagliptin (n=15) groups. The PLA2G2A/DIO2 ratios (bottom panel) were calculated. The data were analyzed using Wilcoxon Matched Pairs Signed Ranks test with Sidak correction
# RNA was extracted from endometrial biopsies which had been placed in RNA Later in the clinic (<1 min after collection), using RNeasy plus Universal mini kit (QIAGEN) according to the manufacturer's instructions. Reverse transcription was performed from 1 μg RNA using the Quantitect Reverse Transcription Kit (QIAGEN) and cDNA was diluted to 10 ng/μl equivalent before use in qPCR. Amplification was performed on a QuantStudio 5 (ThermoFisher) in 10 μl reactions using 2×Quantifast SYBR Green RT-PCR Kit (QIAGEN), with 300 nM each of forward and reverse primers. Primer sequences were as follows: DIO2 forward: 5′-ACT CGG TCA TTC TGC TCA A-3′, DIO2 reverse: 5′-TTC CAG ACG CAG CGC AGT-3′, PLA2G2A forward 5′ AAAGGAAGCCGCACTCAGTT-3′, PLA2G2A reverse: 5′-TTT CCA GGG AAG AGG GGA C-3′. Centile calculations were performed on dCt values using R v3.5 software.
# Details regarding methods and governance of the SIMPLANT clinical trial can be found in Tewary et al., 2020. […]
compound,measurement,value
N[C@@H](CC(=O)N1CCn2c(nnc2C(F)(F)F)C1)Cc1cc(F)c(F)cc1F [sitagliptin],endometrial PLA2G2A/DIO2 ratios before and after the trial,significantly improved

# Reference: patent US20260009079A1, “BIOMARKERS OF PREGNANCY LOSS” (The University of Warwick, priority 2022, published 2026)
